From patent US20250296936A1, “SARS-COV2 MAIN PROTEASE INHIBITORS” (Gilead Sciences, Inc., priority 2024, published 2025) come the findings set out here.

What is called pIC50 is −log10 of the IC50, conventionally taken in molar units.

pIC50: −log10 of the molar value.

The assay concerns the target recombinant SARS-CoV-2 Main protease (Mpro) (Severe acute respiratory syndrome coronavirus 2, UniProt P0DTD1). Briefly: Cov Mpro Biochemical IC50 Assay. Conditions: 7.5 nM Mpro, fluorogenic peptide substrate 40 μM, 20 min pre-incubation; read-out: MPro IC50.
As to `COc1cc(-c2cc3c(o2)c(=O)n(-c2cncc4ccccc24)c(=O)n3CC2(C#N)CC2)c(Cl)cc1F` [Example 47, 1-((6-(2-chloro-4-fluoro-5-methoxyphenyl)-3-(isoquinolin-4-yl)-2,4-dioxo-3,4-dihydrofuro[3,2-d]pyrimidin-1(2H)-yl)methyl)cyclopropane-1-carbonitrile], the pIC50 was 7.56.
In the case of `Cn1ncc2cncc(-n3c(=O)c4oc(-c5ccccc5Cl)cc4n(CC4(C#N)CC4)c3=O)c21` [Example 48], the negative-log IC50 (pIC50) is 8.06.
The result for `COc1cc(-c2cc3c(o2)c(=O)n(-c2cncc4cnn(C)c24)c(=O)n3CC2(C#N)CC2)c(Cl)cc1F` [Example 49] reads 8.05.
The result for `N#CC1(Cn2c(=O)n(-c3cncc4ccccc34)c(=O)c3oc(-c4ccccc4Cl)cc32)CC1` [Example 50] reads 8.17; that for `COc1ccc2cncc(-n3c(=O)c4oc(-c5ccccc5Cl)cc4n(CC4(C#N)CC4)c3=O)c2c1` [Example 51], 7.95.
The same measure for `N#CC1(Cn2c(=O)n(-c3cncc4ccc(F)cc34)c(=O)c3oc(-c4ccccc4Cl)cc32)CC1` [Example 52]: 8.12; for `Cc1cncc(-n2c(=O)c3oc(-c4ccccc4Cl)cc3n(CC3(C#N)CC3)c2=O)c1` [Example 53]: 8.22; for `N#CC1(Cn2c(=O)n(-c3cncc4ccccc34)c(=O)c3oc(-c4ccc(F)cc4Cl)cc32)CC1` [Example 54]: 7.86.
`COc1cc(-c2cc3[nH]c(=O)n(-c4cncc5cccnc45)c(=O)c3o2)c(Cl)cc1F` [Example 55, 6-(2-chloro-4-fluoro-5-methoxyphenyl)-3-(1,6-naphthyridin-8-yl)furo[3,2-d]pyrimidine-2,4(1H,3H)-dione]: the pIC50 is 7.31.
The result for `COc1cc(-c2cc3[nH]c(=O)n(-c4cncc(C)c4)c(=O)c3o2)c(Cl)cc1F` [Example 56] reads 7.56.
In the case of `COc1cc(-c2cc3c(o2)c(=O)n(-c2cncc4cccnc24)c(=O)n3CCC#N)c(Cl)cc1F` [Example 57, 3-(6-(2-chloro-4-fluoro-5-methoxyphenyl)-3-(1,6-naphthyridin-8-yl)-2,4-dioxo-3,4-dihydrofuro[3,2-d]pyrimidin-1(2H)-yl)propanenitrile], the negative-log IC50 (pIC50) is 8.03.
On to `COc1cc(-c2cc3c(o2)c(=O)n(-c2cncc(C)c2)c(=O)n3CCC#N)c(Cl)cc1F` [Example 58], for which the negative logarithm of the IC50 (pIC50) is 8.26.
